# Laboratory results taken from the supplement of paper PMC7826260.
# The list shows a part of the results. Each Rep nickase domain was tested in vitro on the same pool of single strands for 1 h at 37 °C with 3 µM enzyme; only the middle of the 90-letter strands is printed. Uncut reads are compared with the no-enzyme pool on a log2 scale; more negative means more cut, near 0 not cut, and no call is made. Reads are scaled to the total; where an enzyme cuts many sequences, the uncut ones exceed 0.
# Tested on: T1, Rep nickase domain of tomato yellow leaf curl virus
# T1 sequence (residues 1-136 of Rep, tag left off): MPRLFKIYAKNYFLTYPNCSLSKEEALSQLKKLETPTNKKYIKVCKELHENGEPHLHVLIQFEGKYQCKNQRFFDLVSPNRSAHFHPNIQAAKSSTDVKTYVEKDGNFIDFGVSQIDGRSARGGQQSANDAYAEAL
# Experiment: uncleaved DNA left, log2 of reads against the no-enzyme library (log2 ratio); higher = less cleavage (more negative = more Rep cleavage of the k-mer); sequences stand for … in CTCGTCCG…ACCGGAGA
# Description: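 A pool of 90-nt single-stranded DNAs with seven random bases just before the constant AC of the nick site (name = the seven bases) was cut by 3 µM recombinant His6-SUMO-tagged Rep nickase domain (300 nM DNA, 50 mM HEPES pH 8.0, 50 mM NaCl, 1 mM MnCl2, 1 h, 37 °C, three replicates). Uncut DNA was amplified and sequenced.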
row,Sequence,uncleaved DNA left (log2)
1,AGCATGC,0.081
2,GACTCCA,0.167
3,CCTTCTA,-0.14
4,TTGGGAA,0.0414
5,GATTTTA,-0.0457
6,ACGGAAG,-0.0201
7,GCCGTAG,0.0582
8,AATACGC,-0.12
9,TCTGGAA,-0.11
10,AAACCTG,-0.0186
11,TTTGAAC,-0.031
12,GCTAGCT,-0.0383
13,AAAGTTG,-0.0683
14,CCCGTCT,-0.106
15,ATTGGGG,0.0986
16,ATGCCGG,-0.13
17,AGGAGGG,0.0711
18,GGGCCAC,-0.169
19,TTATACT,-0.00835
20,AGCGGAA,0.0558

row,Sequence,uncleaved DNA left (log2)
1,CATCCAG,-0.149
2,CCGACCG,-0.139
3,AAGCGAT,-0.158
4,TGGCTCT,0.00167
5,GAGACGA,0.035
6,CCACAAT,-0.154
7,CCATCTT,0.0432
8,TTGAGCG,-0.011
9,TGTAGTG,-0.171
10,CCTATCC,0.0349
11,ACCTCCT,-0.174
12,TAACAGG,0.00577
13,AAGTCTC,0.0307
14,ATCACAA,-0.11
15,AGTTGGT,-0.141
16,AACTTTA,0.00974
17,TGCTGAG,-0.0421
18,TACAACC,0.0252
19,GCATGTA,-0.0652
20,CCGGTTT,-0.161
